# Results: paper PMC12820563, “FoxP3 forms a head-to-head dimer in vivo and stabilizes its multimerization on adjacent microsatellites”
# The other results are listed elsewhere or left out.
# Biological target: T1, MBP-FoxP1dN (Mus musculus, UniProt P58462 326-579)
# T1 sequence: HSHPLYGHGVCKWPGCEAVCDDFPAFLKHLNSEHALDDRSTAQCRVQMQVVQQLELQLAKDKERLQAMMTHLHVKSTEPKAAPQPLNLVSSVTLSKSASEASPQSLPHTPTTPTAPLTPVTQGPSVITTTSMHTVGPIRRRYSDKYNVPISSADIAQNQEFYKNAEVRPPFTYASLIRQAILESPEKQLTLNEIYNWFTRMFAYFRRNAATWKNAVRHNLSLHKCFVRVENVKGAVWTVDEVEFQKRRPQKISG
# Test: PD-seq (MBP pull-down with sequencing); 20 mM Tris-HCl pH 7.5, 100 mM NaCl, 1.5 mM MgCl2, 0.4 uM protein, 0.1 uM dsDNA library, 30 min, room temperature, amylose pull-down; high values mean tight binding
# Conditions: protein: recombinant; tags: His6-MBP; chain copies: 2; dsDNA, one strand shown
# Summary of the method: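 Binding is the reads-per-million enrichment of pull-down relative to input, pooled across replicates. For this, 0.4 µM His6-MBP-tagged mouse FoxP3 or FoxP1 fragment lacking the N-terminus, made in E. coli, was incubated with 0.1 µM Klenow-filled double-stranded degenerate DNA library for 30 min at room temperature in Tris pH 7.5 buffer with NaCl and MgCl2. Complexes bound to amylose resin were washed three times before proteinase K released the DNA for PCR barcoding and Illumina sequencing.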
row,Sequence,binding signal
1,GATGATTGTTCTCCCAGCTGATGAATTTTCCCACTCGAGTAAACAAATTTTCCTAATCTTTCTGTTCAAGCGCCATCTAC,0.886 RPM ratio (pull-down/input)
2,GATGATTGTTCTCCCAGCTGATGAATTACATTATTCGAGTAAACAAATTTTCCTAATCTTTCTGTTCAAGCGCCATCTAC,1.48 RPM ratio (pull-down/input)
3,GATGATTGTTCTCCCAGCTGATGAATTAATTCTATCGAGTAAACAAATTTTCCTAATCTTTCTGTTCAAGCGCCATCTAC,0.992 RPM ratio (pull-down/input)
4,GATGATTGTTCTCCCAGCTGATGAATTTATCTCGTCGAGTAAACAAATTTTCCTAATCTTTCTGTTCAAGCGCCATCTAC,1.12 RPM ratio (pull-down/input)
5,GATGATTGTTCTCCCAGCTGATGAATTCTGGAGGTCGAGTAAACAAATTTTCCTAATCTTTCTGTTCAAGCGCCATCTAC,0.729 RPM ratio (pull-down/input)
6,GATGATTGTTCTCCCAGCTGATGAATTTGAGGCATCGAGTAAACAAATTTTCCTAATCTTTCTGTTCAAGCGCCATCTAC,0.995 RPM ratio (pull-down/input)
7,GATGATTGTTCTCCCAGCTGATGAATTCAGTTGATCGAGTAAACAAATTTTCCTAATCTTTCTGTTCAAGCGCCATCTAC,1.13 RPM ratio (pull-down/input)
8,GATGATTGTTCTCCCAGCTGATGAATTTTCACACTCGAGTAAACAAATTTTCCTAATCTTTCTGTTCAAGCGCCATCTAC,0.883 RPM ratio (pull-down/input)
9,GATGATTGTTCTCCCAGCTGATGAATTTCGCTAGTCGAGTAAACAAATTTTCCTAATCTTTCTGTTCAAGCGCCATCTAC,0.836 RPM ratio (pull-down/input)
10,GATGATTGTTCTCCCAGCTGATGAATTGACTGTATCGAGTAAACAAATTTTCCTAATCTTTCTGTTCAAGCGCCATCTAC,1.16 RPM ratio (pull-down/input)
11,GATGATTGTTCTCCCAGCTGATGAATTAAGAACATCGAGTAAACAAATTTTCCTAATCTTTCTGTTCAAGCGCCATCTAC,1.14 RPM ratio (pull-down/input)
12,GATGATTGTTCTCCCAGCTGATGAATTACGATAGTCGAGTAAACAAATTTTCCTAATCTTTCTGTTCAAGCGCCATCTAC,1.01 RPM ratio (pull-down/input)
13,GATGATTGTTCTCCCAGCTGATGAATTTCGTCTATCGAGTAAACAAATTTTCCTAATCTTTCTGTTCAAGCGCCATCTAC,0.927 RPM ratio (pull-down/input)
14,GATGATTGTTCTCCCAGCTGATGAATTGGGACGCTCGAGTAAACAAATTTTCCTAATCTTTCTGTTCAAGCGCCATCTAC,0.882 RPM ratio (pull-down/input)
15,GATGATTGTTCTCCCAGCTGATGAATTCCTATTGTCGAGTAAACAAATTTTCCTAATCTTTCTGTTCAAGCGCCATCTAC,2.02 RPM ratio (pull-down/input)
16,GATGATTGTTCTCCCAGCTGATGAATTAAGTTTTTCGAGTAAACAAATTTTCCTAATCTTTCTGTTCAAGCGCCATCTAC,1 RPM ratio (pull-down/input)

row,Sequence,binding signal
1,GATGATTGTTCTCCCAGCTGATGAATTGGTAGGTTCGAGTAAACAAATTTTCCTAATCTTTCTGTTCAAGCGCCATCTAC,0.963 RPM ratio (pull-down/input)
2,GATGATTGTTCTCCCAGCTGATGAATTTTTACCATCGAGTAAACAAATTTTCCTAATCTTTCTGTTCAAGCGCCATCTAC,1.01 RPM ratio (pull-down/input)
3,GATGATTGTTCTCCCAGCTGATGAATTAAGTAGTTCGAGTAAACAAATTTTCCTAATCTTTCTGTTCAAGCGCCATCTAC,0.858 RPM ratio (pull-down/input)
4,GATGATTGTTCTCCCAGCTGATGAATTGCGATCCTCGAGTAAACAAATTTTCCTAATCTTTCTGTTCAAGCGCCATCTAC,0.949 RPM ratio (pull-down/input)
5,GATGATTGTTCTCCCAGCTGATGAATTACACCATTCGAGTAAACAAATTTTCCTAATCTTTCTGTTCAAGCGCCATCTAC,1.27 RPM ratio (pull-down/input)
6,GATGATTGTTCTCCCAGCTGATGAATTATTTGGGTCGAGTAAACAAATTTTCCTAATCTTTCTGTTCAAGCGCCATCTAC,1.29 RPM ratio (pull-down/input)
7,GATGATTGTTCTCCCAGCTGATGAATTTCTCGTTTCGAGTAAACAAATTTTCCTAATCTTTCTGTTCAAGCGCCATCTAC,0.859 RPM ratio (pull-down/input)
8,GATGATTGTTCTCCCAGCTGATGAATTACTAGGCTCGAGTAAACAAATTTTCCTAATCTTTCTGTTCAAGCGCCATCTAC,0.914 RPM ratio (pull-down/input)
9,GATGATTGTTCTCCCAGCTGATGAATTGTGCGACTCGAGTAAACAAATTTTCCTAATCTTTCTGTTCAAGCGCCATCTAC,0.994 RPM ratio (pull-down/input)
10,GATGATTGTTCTCCCAGCTGATGAATTTTCTTAATCGAGTAAACAAATTTTCCTAATCTTTCTGTTCAAGCGCCATCTAC,1.01 RPM ratio (pull-down/input)
11,GATGATTGTTCTCCCAGCTGATGAATTGAGAACATCGAGTAAACAAATTTTCCTAATCTTTCTGTTCAAGCGCCATCTAC,1.07 RPM ratio (pull-down/input)
12,GATGATTGTTCTCCCAGCTGATGAATTAGCGCGCTCGAGTAAACAAATTTTCCTAATCTTTCTGTTCAAGCGCCATCTAC,0.859 RPM ratio (pull-down/input)
13,GATGATTGTTCTCCCAGCTGATGAATTAACGTCTTCGAGTAAACAAATTTTCCTAATCTTTCTGTTCAAGCGCCATCTAC,0.901 RPM ratio (pull-down/input)
14,GATGATTGTTCTCCCAGCTGATGAATTAACACGTTCGAGTAAACAAATTTTCCTAATCTTTCTGTTCAAGCGCCATCTAC,1.05 RPM ratio (pull-down/input)
15,GATGATTGTTCTCCCAGCTGATGAATTTTGGCTATCGAGTAAACAAATTTTCCTAATCTTTCTGTTCAAGCGCCATCTAC,0.908 RPM ratio (pull-down/input)
16,GATGATTGTTCTCCCAGCTGATGAATTCGTCCGTTCGAGTAAACAAATTTTCCTAATCTTTCTGTTCAAGCGCCATCTAC,0.846 RPM ratio (pull-down/input)
